# Hit rate of the full screen: of about 390,000 compounds, about 150 (0.038%) were called active. The shares of active, inactive and inconclusive entries below differ from those in the screen. Calls follow the shape of the dose curve; as a rule, active = well fitted inhibition curve with a large enough effect; inconclusive = small, poorly fitted or top-dose-only effect; inactive = no such curve, though single readings can be large or run the other way. A potency beside an inconclusive call is a rough fit, not a confirmed value.
# Biological target: Regulator of G-protein signaling 4 (Homo sapiens) (UniProt P49798)
# Chain of UniProt P49798 (P49798 whole entry, looked up): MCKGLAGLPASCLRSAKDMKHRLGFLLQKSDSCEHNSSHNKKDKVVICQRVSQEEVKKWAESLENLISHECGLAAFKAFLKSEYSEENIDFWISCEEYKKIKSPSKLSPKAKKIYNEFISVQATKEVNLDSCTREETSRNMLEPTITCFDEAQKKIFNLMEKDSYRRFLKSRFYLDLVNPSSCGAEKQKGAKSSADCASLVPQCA
# Assay: Inhibitors of Regulator of G Protein Signaling (RGS) 4: qHTS; also: nearly all actives have a fitted effect of over 75% in size
# Conditions: Transcreener GDP fluorescence polarization, RGS4-accelerated GTP hydrolysis; series mostly up to 114 µM; activity change, negative = inhibition: at the top concentration
# Summary of the method: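 MLSMR compounds (23 nl, pin-transferred) preincubated 10 min at room temperature with a 500nM (2x) first reagent, then RGS4 at 900nM (2x) plus Transcreener GDP mix added; fluorescence polarization (620/688 nm) read before and after 90 min at 30 °C.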
# % is scaled to controls: 0 for no effect and ±100 for the full control effect; potency is read from the fitted curve at half-maximal effect; tags tell the direction and shape of the fitted curve.
SMILES,Potency,"activity change, negative = inhibition"
CCOC(=O)N1CCc2c(sc(NCc3ccc(OC)c(OC)c3OC)c2C(=O)Nc2ccc(OC)cc2OC)C1,"inconclusive: 79.4 µM [inhibitor, partial curve, poor fit]",–
O=C(Nc1nc2nccc(-c3ccccc3)n2n1)c1ccc(F)cc1,–,inactive: -12.2%
Cc1ccc(NC(=O)c2cc(-c3ccc(C)o3)nc3ccccc23)cc1,"inconclusive: 28.2 µM [inhibitor, full curve, poor fit]",–
CC(=O)NC1C(OC2OC(CC(O)C3OC([N+]4=CCC(=O)NC4=O)C(O)C3O)C(O)C(O)C2NC(=O)/C=C/CCCCCCCCC(C)C)OC(CO)C(O)C1O (stereo unspecified),"inconclusive: 0.006 µM [inhibitor, full curve, poor fit]",–
CCN(CC)C(=O)c1sc(NC(=O)C(C)Sc2nc(-c3ccccc3)cc(C(F)(F)F)n2)c(C(=O)OC)c1C (stereo unspecified),"inconclusive: 50.1 µM [inhibitor, partial curve, poor fit]",–
O=C(CSc1nnc(-c2cccnc2)s1)Nc1ccnc2ccccc12,–,inactive: -10.8%
O=C(CN1C(=O)NC2(CCCC2)C1=O)NCCN1C(=O)S/C(=C\c2ccccc2F)C1=O,–,inactive: -24.8%
O=C1CSC(=S)N1/N=C/c1ccc2c(c1)OCCO2,"inconclusive: 70.8 µM [inhibitor, partial curve, poor fit]",–
Cc1ccc(SCCNCc2ccco2)cc1,"inconclusive: 89.1 µM [inhibitor, single point]",–
N#Cc1c(-c2ccccc2)ccn(Cc2ccc(Cl)cc2)c1=O,"inconclusive: 89.1 µM [inhibitor, single point]",–
COc1ccc(CC(=O)NCc2ccc3c(c2)CCN3C(=O)c2ccc(Cl)cc2)cc1OC,"inconclusive: 56.2 µM [inhibitor, partial curve, poor fit]",–
CCn1c2ccccc2c2cc(/C=C(/C#N)C(N)=S)ccc21,"inconclusive: 25.1 µM [inhibitor, full curve, poor fit]",–
O=C(COC(=O)c1ccc(Cl)nc1)NCCNC(=O)COC(=O)c1ccc(Cl)nc1,–,inactive: 24%
CC1CCCN(C(=O)C(C)Nc2cc(Cl)ccc2N2CCOCC2)C1 (stereo unspecified),"inconclusive: 50.1 µM [inhibitor, partial curve, poor fit]",–
CCOCCCNC(=O)CN(c1cc([N+](=O)[O-])ccc1OC)S(C)(=O)=O,"inconclusive: 100 µM [inhibitor, single point]",–
Cc1cc(C)nc(SCC(=O)NC2CCCCC2C)n1 (stereo unspecified),–,inactive: 5.03%
Cc1cc(NC(=O)CCOc2ccc(F)cc2)no1,"inconclusive: 89.1 µM [inhibitor, single point]",–
O=C1ON=C(c2ccccc2)/C1=C/c1ccco1,"inconclusive: 50.1 µM [inhibitor, partial curve, poor fit]",–
CC1CCCN(C(=O)CN2C(=O)c3ccccc3S2(=O)=O)C1 (stereo unspecified),"inconclusive: 89.1 µM [inhibitor, single point]",–
O=C1N=C(c2ccccc2)S/C1=C\c1cccs1,"inconclusive: 112 µM [inhibitor, partial curve, poor fit]",–
CC(CN1CCOCC1)OC(=O)C(C)(c1ccccc1)c1ccccc1 (stereo unspecified),–,inactive: 18.8% [at 11.4 µM]

SMILES,Potency,"activity change, negative = inhibition"
Cc1c(N=Nc2c(-c3ccc([N+](=O)[O-])cc3)[nH]n(C(N)=S)c2=O)cccc1[N+](=O)[O-],"inconclusive: 79.4 µM [inhibitor, partial curve, poor fit]",–
O=C(Nc1nnc(-c2ccccc2)s1)c1cccc(S(=O)(=O)N2CCOCC2)c1,"inconclusive: 79.4 µM [inhibitor, partial curve, poor fit]",–
Oc1ccc(N=Nc2ccccc2-c2nn[nH]n2)c(O)c1,"inconclusive: 100 µM [inhibitor, single point]",–
CCOC(=O)c1c(C)[nH]c(C)c1C(=O)COc1ncnc2ccccc12,"inconclusive: 35.5 µM [inhibitor, full curve, poor fit]",–
Cc1ccc(C)c(NC(=S)NNC(=S)Nc2ccc(C(C)C)cc2)c1,"inconclusive: 50.1 µM [inhibitor, partial curve, poor fit]",–
Cc1ccc(C(=O)NNC(=S)NC(=O)COc2ccccc2)cc1,–,inactive: -43.7%
CCn1cc(S(=O)(=O)CC(=O)Nc2ccc3c(c2)OCCO3)c2ccccc21,–,inactive: -42.4%
COC(=O)c1[nH]c2ccccc2c1NC(=O)CN1CCN(C/C=C/c2ccccc2)CC1,–,inactive: 4.22%
N#C/C(=C\c1ccc(OCc2ccccc2)cc1)C(N)=O,"inconclusive: 31.6 µM [inhibitor, full curve, poor fit]",–
COc1ccc(C(c2c(C)[nH][nH]c2=O)c2c(C)[nH][nH]c2=O)cc1Br,"inconclusive: 70.8 µM [inhibitor, partial curve, poor fit]",–
O=C(/C=C/c1ccccc1Cl)c1ccccc(=O)c1O,"inconclusive: 44.7 µM [inhibitor, partial curve, poor fit]",–
C/C(CC(=O)Nc1ccc(N(C)C)cc1)=N\NC(=O)c1ccc([N+](=O)[O-])cc1Cl,"inconclusive: 50.1 µM [inhibitor, partial curve, poor fit]",–
Cc1ccc(C)c(NC(=O)CCn2nc(C)c3c(C)n(-c4ccccc4)nc3c2=O)c1,–,inactive: 26.9%
Cc1ccc(CNc2ncnc3[nH]ncc23)o1,–,inactive: 8.33%
COc1ccc(/C=N\NC(=O)c2sc(N)nc2C)cc1OC,"inconclusive: 89.1 µM [inhibitor, single point]",–
CN(C)S(=O)(=O)c1cccc(-c2nnc(SCc3cc(Cl)cc4c3OCOC4)n2N)c1,"inconclusive: 22.4 µM [inhibitor, full curve, poor fit]",–
Cc1ccc(C(=O)O)cc1-c1ccc(C=C2C(=O)c3ccccc3C2=O)o1,"inconclusive: 70.8 µM [inhibitor, partial curve, poor fit]",–
COc1ccc(-c2noc(-c3cccnc3NCc3ccco3)n2)cc1,–,inactive: -33.2%
O=C(NCCc1ccccc1)c1cc2sccc2n1Cc1ccccc1,"inconclusive: 50.1 µM [inhibitor, partial curve, poor fit]",–
CCNC(=O)c1ccccc1SCC(=O)Nc1ccc(F)cc1,"inconclusive: 31.6 µM [inhibitor, full curve, poor fit]",–
